Experimental data published in PubChem BioAssay AID1508642 (National Center for Advancing Translational Sciences (NCATS), 2021).
Screen size: about 43,000 compounds; about 200 (0.47%) were called active. Inconclusive results (about 12%) are left out. The call rests on the fitted dose curve; in most records, active means well fitted cell-killing curve with a large enough effect; inconclusive means small, poorly fitted or top-dose-only effect, or effect the other way; inactive means flat fitted curve, though single readings scatter. The list shows a part of the results.

Assay: Cell viability qHTS assay in S16 Pmp22-F2sN cells; further: nearly all actives have a fitted effect of over 65% in size
Conditions: S16 Pmp22-F2sN Schwann cells (luciferase reporters placed in the Pmp22 gene) viability, CellTiter-Glo, 24 h; series mostly up to 57.5 µM; activity change, negative = cytotoxicity: at the top concentration
Procedure, shortened: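 CellTiter-Glo counter-screen, qHTS, 1536-well. Cells: S16(c9) Pmp22-F2sN, 500-1,000/well in DMEM + 10% FBS. Cpd 23 nL pin transfer, 24 h, 37C/5% CO2. Read: luminescence, CCD imager.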
On the % scale 0 is the no-effect control and ±100 the full control effect.

Row | SMILES | activity change, negative = cytotoxicity
1 | CCOc1cccc2sc(N(CCN(CC)CC)C(=O)c3ccco3)nc12 | inactive: 7.12%
2 | Cc1cccc(C(=O)NCC(=O)OCc2cc(=O)n3nc(C4CC4)sc3n2)c1 | inactive: 2.09%
3 | Cc1cc(C)cc(NC(=O)CCc2c(C)nc3c4cccnc4nn3c2C)c1 | inactive: 13.6%
4 | CCOC(=O)Cn1c(=O)n(C2CCCCC2)c2nc(-c3cccc(OC)c3)nc(C(N)=O)c21 | inactive: -5.13%
5 | Cc1cccc(NC(=O)Cc2csc(COc3cccc(C)c3)n2)c1 | inactive: -0.145%
6 | Cc1ccc(CNC(=O)Cn2c(=O)n(-c3cccc(Cl)c3)c(=O)c3sc4ccccc4c32)cc1 | inactive: 5.38%
7 | CCOc1ccc(-c2cc3nc(C4CCN(C(=O)OC(C)(C)C)CC4)c(C(=O)Nc4ccc(C)cc4C)cn3n2)cc1 | inactive: 11.5%
8 | COc1ccccc1N1CCN(C(=O)c2cc3ccc4ccc(C)[nH]c4c3n2)CC1 | inactive: -27.1%
9 | CCOC(=O)C1CCCN(S(=O)(=O)c2csc(C(N)=O)c2)C1 (stereo unspecified) | inactive: -0.797%
10 | CCc1nn2c(=O)c(S(=O)(=O)Nc3cccc(F)c3)c(C)nc2s1 | inactive: 19.5%
11 | CCC(Sc1nc2nccnc2c(=O)n1Cc1ccc(C)cc1)C(=O)NC1CCCCC1 (stereo unspecified) | inactive: -4.98%
12 | CCOc1ccc(S(=O)(=O)Nc2ccc(-c3ccc(OC)nn3)cc2)cc1 | inactive: 12.2%
13 | Cc1cccc(-n2c(SCC(=O)c3ccccc3)nnc2-c2ccc(Br)cc2)c1 | inactive: -1.45%
14 | Cc1c2cnn(-c3ccccc3)c(=O)c2c(C)n1CC(=O)NCc1ccccc1 | inactive: -8.98%
15 | CCCNC(=O)N1CCN(S(=O)(=O)c2ccc3c(ccn3C)c2)CC1 | inactive: -1.76%
16 | COc1cc2c(c(OC)c1)C(c1cc(OC)c(OC)c(OC)c1)CC(=O)N2 (stereo unspecified) | inactive: 24.7%
17 | CCn1c(C)c(C)c2cc(C(=O)NCc3cccc(C)c3)ccc21 | inactive: -4.12%
18 | COc1ccc(NC(=O)/C=C\C(=O)N(c2ccc(C(C)C)cc2)C(C(=O)NCc2ccco2)c2ccc(F)cc2)cc1 (stereo unspecified) | inactive: -2.71%
19 | O=C(c1ccccc1)N(Cc1ccco1)Cc1cccs1 | inactive: -4.25%
20 | Cc1cccc(C(=O)Nc2ccc(C(=O)OCc3cc(=O)n4nc(CC(C)C)sc4n3)cc2)c1 | inactive: 0.35%
21 | Cc1ccc(C)c(Cn2c(=O)cc(C)c3c(C)nn(C)c32)c1 | inactive: -11.5%
22 | Cc1ccc(-n2ncc3c(N4CCN(C)CC4)ncnc32)cc1C | inactive: -19%
23 | COc1cccc(CNC(=O)CCc2c(C)c3cc4c(C)coc4c(C)c3oc2=O)c1 | inactive: 1.31%
24 | CCc1ccccc1NC(=O)CCS(=O)(=O)c1cccc2nonc12 | inactive: -5.93%

Row | SMILES | activity change, negative = cytotoxicity
25 | COc1ccc(N2CCN(C(=O)c3cc(S(=O)(=O)N4CCC(C)CC4)cn3C)CC2)cc1 | inactive: 0.364%
26 | CCN1CCN(CCCNC(=O)c2ccc3nc(Cc4ccccc4)oc3c2)CC1 | inactive: -15.7%
27 | CCOc1ccccc1N(CC)C(=O)c1noc2c1COc1ccc(C)cc1-2 | inactive: 2.47%
28 | CCn1cc(C(=O)NCCc2ccc(Cl)cc2)c(=O)c2cc(S(=O)(=O)N3CCC(C)CC3)ccc21 | inactive: 11%
29 | O=C(NC1CCCCC1)c1ccc2c(c1)N(Cc1ccc(Cl)cc1)C(=O)c1ccccc1S2=O (stereo unspecified) | inactive: 15.4%
30 | O=C(c1ccc(F)cc1)n1nc(-c2ccccc2)nc1NCc1ccco1 | inactive: -9.51%
31 | Cc1cccc(NC(=O)CCNS(=O)(=O)c2cccc3nsnc23)c1C | inactive: 16%
32 | COc1ccc(N(CC(=O)N2CCN(c3ccccc3F)CC2)S(=O)(=O)c2c(C)n[nH]c2C)cc1 | inactive: -20.7%
33 | CCN(C(=O)C1CCN(c2ncnc3c2nc2n3CCCCC2)CC1)c1cccc(Cl)c1 | inactive: -3.16%
34 | COc1ccc(-n2ccnc(NCc3ccc(C)cc3)c2=O)cc1OC | inactive: 2.35%
35 | O=C(NCC(c1ccc2c(c1)OCO2)N1CCOCC1)c1c(F)cccc1F (stereo unspecified) | inactive: -2.18%
36 | CC(C)(Oc1ccc(Cl)cc1)C(=O)Nc1nc2ccc(S(C)(=O)=O)cc2s1 | inactive: -2.21%
37 | CN(C)c1ccc(C(CNC(=O)c2c(F)cccc2Cl)N2CCOCC2)cc1 (stereo unspecified) | inactive: 13.7%
38 | Cc1ccc(NC(=O)CN2C(=O)C3(SCC(=O)N3c3ccc(F)c(F)c3)c3ccccc32)c(C)c1 (stereo unspecified) | inactive: -22.3%
39 | CCOCCCNC(=O)C(c1ccc(Cl)cc1)N(Cc1cccs1)C(=O)c1ccc(NC(C)=O)cc1 (stereo unspecified) | inactive: -15.8%
40 | CCC(=O)N1CCc2cc(Br)cc(S(=O)(=O)CCC(=O)N(CC)Cc3ccccc3)c21 | inactive: 4.97%
41 | COc1cc(OC)cc(C(=O)Nc2ccc3oc(-c4cccc5c(Br)cccc45)nc3c2)c1 | inactive: 3.87%
42 | CN1C(=O)C2(SCC(=O)N2c2ccc(F)cc2)c2ccccc21 (stereo unspecified) | inactive: -2.34%
43 | CCOc1ccc(OCC)c(NS(=O)(=O)c2cc(-c3onc(C)c3C)ccc2OC)c1 | inactive: -2.54%
44 | CC(=O)N1CCc2cc(CNS(=O)(=O)c3ccc(Cl)s3)ccc21 | inactive: -24.2%
45 | COc1ccc(-n2c(=O)c3c4c(sc3n3c(SCCC(C)C)nnc23)COC(C(C)C)C4)cc1 (stereo unspecified) | inactive: 1.03%
46 | CN(Cc1ccco1)S(=O)(=O)c1nnc(NC(=O)c2cccc(Cl)c2)s1 | inactive: -18.7%
47 | CCCN(CCC)C(=O)c1cc2c(=O)n3cccc(C)c3nc2n1C | inactive: 11.9%
48 | Cc1ccc2cccc(NC(=O)c3ccc(-c4cccc(Cl)c4)o3)c2n1 | inactive: 3.72%

Row | SMILES | activity change, negative = cytotoxicity
49 | Cc1ccc(NC(=O)Cn2c(=O)oc3cc(S(=O)(=O)N4CCCCCC4)ccc32)cc1Cl | inactive: -4.82%
50 | CCOc1ccc(Nc2c(S(=O)(=O)c3ccccc3)cnc3ccccc23)cc1 | inactive: 0.931%
51 | CC(C)C(NS(=O)(=O)c1ccc2c(c1)oc(=O)n2C)C(=O)NCCc1ccc(Cl)cc1 (stereo unspecified) | inactive: 1.41%
52 | COCCNC(=O)CSc1nc(-c2ccccc2C)nc2c1c(=O)n(C)c(=O)n2C | inactive: 3.06%
53 | NS(=O)(=O)c1ccc2nc(NC(=O)COc3ccccc3)sc2c1 | inactive: 0.119%
54 | Cc1ccc(-c2nnc(Nc3ccc(S(N)(=O)=O)cc3)c3ccccc23)cc1S(=O)(=O)N1CCCCC1 | inactive: -15.4%
55 | COC(=O)C1CCN(S(=O)(=O)c2cc3c4c(c2)CC(=O)N4CCC3)CC1 | inactive: -5.39%
56 | O=C(Nc1cccc(F)c1)c1ccc(-c2ccccc2)s1 | inactive: 12.5%
57 | CCCN(CCC)CCCNC(=O)Cn1cnc2sc(C)c(S(=O)(=O)N3CCC(C)CC3)c2c1=O | inactive: 1.9%
58 | CCOCCCn1c(=N)c(C(=O)NCC2CCCO2)cc2c(=O)n3cccc(C)c3nc21 (stereo unspecified) | inactive: -6.67%
59 | Cc1ccc(C)c(NC(=O)Cn2c(=O)n(Cc3ccccc3)c(=O)c3oc4ccccc4c32)c1 | inactive: 0.279%
60 | Cc1ccc(C)c(N2CCN(Cc3csc(C)c3)CC2)c1 | inactive: -3.04%
61 | COC(=O)C1=C(c2ccccc2)c2ccccc2S(=O)(=O)N1CC(=O)Nc1ccccc1Cl | inactive: 5.96%
62 | Cc1ccc(CN2C(=O)c3ccccc3Sc3ccc(C(=O)OCc4ccco4)cc32)cc1 | inactive: 7.2%
63 | Cc1ccc(S(=O)(=O)c2cn(Cc3ccccc3Cl)c3ccc(F)cc3c2=O)cc1 | inactive: -8.77%
64 | COc1ccc2c(c1)NC(c1cccnc1)=NC(c1ccc(F)cc1)=N2 | inactive: -3.58%
65 | CCOC(=O)c1c(C)oc2nc(C)nc(NCc3ccccc3OC)c12 | inactive: -26.4%
66 | COc1ccccc1NC(=O)Cn1c(=O)n(CCCCCC(=O)NCc2ccccc2)c(=O)c2sccc21 | inactive: 12.9%
67 | Cc1ccccc1Nc1c(-c2cccs2)nc2cccc(C)n12 | inactive: -0.796%
68 | CC1Cc2cc(S(=O)(=O)N(Cc3ccccc3)C(C)C)ccc2N1C(=O)C1CCC1 (stereo unspecified) | inactive: -23.9%
69 | CCOc1ccc(/C=C/c2nc(C#N)c(NCCc3ccccc3)o2)cc1 | inactive: -7.49%
70 | O=C(CSc1nc2c([nH]c3ccccc32)c(=O)n1-c1ccc(Cl)cc1)NCC1CCCO1 (stereo unspecified) | inactive: 12%
71 | Cc1cc(C(=O)Nc2c(C)nc3ccccn3c2=O)ccc1[N+](=O)[O-] | inactive: 0.837%
72 | Cc1ccc(-n2c(SCC(N)=O)nc3c(oc4ccccc43)c2=O)cc1C | inactive: -3.91%

Row | SMILES | activity change, negative = cytotoxicity
73 | COc1cccc(C(=O)Nc2ccccc2-c2nnc(-c3cccc(OC)c3)o2)c1 | inactive: -23.6%
74 | O=C(Cn1c(=O)oc2cc(S(=O)(=O)NCc3ccccc3)ccc21)NCc1ccc(Cl)cc1 | inactive: -25%
75 | CC(=O)Nc1ccc(S(=O)(=O)NC2(C(F)(F)F)NC(=O)N(CCc3ccc(F)cc3)C2=O)cc1 (stereo unspecified) | inactive: 7.04%
76 | COc1ccc(CNC(=O)CCc2nc(-c3ccc(C)cc3)no2)c(OC)c1 | inactive: -20.1%
77 | O=C(Nc1ccc2nc(SCC(=O)N3CCc4ccccc43)sc2c1)c1ccccc1F | inactive: 20.4%
78 | Cn1cc(S(=O)(=O)c2ccccc2)c(=O)c2cc(F)c(N3CCCCCC3)cc21 | inactive: -19.8%
79 | Cc1cc(C)cc(-n2c(SCC(=O)Nc3ccc4c(c3)OCCO4)nc3c([nH]c4ccccc43)c2=O)c1 | inactive: 20.1%
80 | COc1ccc(C)cc1-n1cnc2cc(C(=O)NC3CCCC3)ccc21 | inactive: 4.99%
81 | COc1cc(C(=O)Nc2nonc2-c2ccc(C)c(C)c2)cc(OC)c1OC | inactive: 13%
82 | Cc1ccc(NC(=O)c2ccc(NC(=O)N3CCSc4ncccc43)cc2)c(C)c1 | inactive: 14.7%
83 | O=C(CSc1nc(-c2ccc(F)cc2)cc(C(F)(F)F)n1)NCCc1ccccc1 | inactive: 17.7%
84 | COc1cccc(N2CCN(S(=O)(=O)c3ccc(-c4ccno4)cc3OC)CC2)c1 | inactive: -24.5%
85 | O=C(CSc1cn(CC(=O)N2CCCCC2)c2ccccc12)Nc1ccc(C(F)(F)F)cc1 | inactive: 5.13%
86 | COc1ccc(OC)c(C2NC(=O)NC(C)=C2C(=O)Nc2ccc(F)cc2)c1 (stereo unspecified) | inactive: -1.75%
87 | Cc1ccc(C(c2sc3nc(-c4ccco4)nn3c2O)N2CCC3(CC2)OCCO3)cc1 (stereo unspecified) | inactive: 17.4%
88 | CCc1cccc(Nc2ncnc3onc(-c4ccc(F)cc4)c23)c1 | inactive: -4.77%
89 | COC(=O)c1c(C)nn(-c2ccc(F)cc2)c1-n1cccc1 | inactive: 5.83%
90 | Cc1ccc(C(=O)NCc2ccc(F)cc2)cc1NC(=O)c1nsc2ccccc12 | inactive: -3.72%
91 | CCN(CC)CCNC(=O)c1sc2ncccc2c1-n1cccc1 | inactive: -2.48%
92 | COc1ccc(NC(=O)c2ccco2)cc1NC(=O)COc1ccc(Cl)cc1C | inactive: -4.69%
93 | Cc1ccc(NC(=O)Cn2c(=O)n(Cc3nc(-c4ccccc4)no3)c(=O)c3cc4c(cc32)OCO4)c(C)c1 | inactive: 5.24%
94 | COc1cccc(Nc2nc3ccc(C)cc3nc2-n2nc(C)cc2C)c1 | inactive: 5.22%
95 | COc1ccc(Nc2c(-c3ccccn3)nc3ccc(Cl)cn23)cc1 | inactive: -12.7%
96 | Cc1ccc(NC(=O)C2=CC(c3ccc4c(c3)OCO4)=NS(=O)(=O)N2C)cc1 | inactive: 10.5%
